Data: the supplement of paper PMC10126150
Values marked as one replicate rest on one cluster of the flow cell; about a third of the high ones do not repeat.

System: ATP
Assay: switch fluorescence ratio, 500 uM ATP over buffer (Cy3 cluster intensity, sum of 5 cycles each) (fold (ratio)); higher = stronger signal-on switching upon ATP binding; sequences stand for … in TCGTCGGCAGCGTCAGATGTGTATAAGAGACAGTTTTTTTTTTTTTTTTTTTTTTTTT…TC
Details: aptamer strand: ATP DNA aptamer (quencher-CACCTGGGGGAGTATTGCGGAGGAAGG + anchor), 100 nM annealed; ATP concentration: 500 uM; one replicate
Procedure, shortened: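 Switching-strand clusters labelled with Cy3 on a modified Illumina MiSeq flow-cell were annealed to 100 nM quencher-labelled ATP aptamer, imaged in selection buffer, and re-imaged after 15 min with 500 uM ATP at 22 °C. This was done over five cycles with NaOH stripping and re-annealing in between. The fluorescence ratio is summed target-cycle over summed buffer-cycle Cy3 intensity per cluster, averaged per switch-domain sequence, excluding clusters outside 100-1000 RFU.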
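Also: ATP exposure 15 min at 22 °C before imaging.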

Sequence | switch fluorescence ratio
GACAATAAGG | 0.989
GATGCGCTAA | 0.998
TTTCGTCCCA | 1.03
GACCCCCGA | 1.34
CCAGAGTTAG | 1.04
ACGTATCCC | 1.15
AGTTTGCATC | 0.991
ATGCTAAA | 0.951
GCCACTATCG | 1.01
ATATTTGTC | 0.996
AGAGCTTCGG | 1.04
TTTATTGAT | 1.01
GGCAGAAAGC | 1
CTAACAGATC | 0.964
TAGTTTTGG | 0.989
AGTGTTGTC | 0.994
ATCATGGGTC | 1.02
ATTGGAAGTC | 1.02
GGTCTGCCCG | 1.01
GCCTCGACGA | 1.05
GTCTTCAACC | 0.967
GCCTACCCTA | 1.1
GACGGGTGGA | 1.04
GATTAGGGG | 0.996
ACTACTGTCA | 1.04
CTTCTCCGAC | 5.13

Sequence | switch fluorescence ratio
AACTGGATCA | 1.01
AAGGAAGTAA | 1.04
GGTAATGATG | 1.02
TCAAGAAATA | 1.02
GTATATGGAA | 1.03
CCTTAATATG | 1.04
AAGAACCGAC | 2.46
ACTCTCCTAT | 1.01
AATGTTCGGG | 1.02
TCTAAGGTCC | 1
CGTATGTACT | 1.02
TATATCTT | 1.01
GGTGTTAGAA | 0.981
GATGTGGGAC | 1.04
CAGTGCCCAT | 1.01
AACTTGCGCC | 1.02
AGCAAGCATG | 1.03
GATGGTTCTA | 0.944
TTTATGCCCC | 0.977
AACAAGTTTG | 0.995
ATATCATCTT | 0.974
ACAATGTTCA | 1.07
TATTACCATC | 1.04
TAAAACGCAT | 1.34
TATTGGAGGA | 0.975
TAAGGGCACC | 1.02

Sequence | switch fluorescence ratio
GACTATCACT | 1.1
GTGTGTCATA | 1.02
ATGCTACATC | 1.02
CACTCATATT | 1.04
CGGAGGGTTC | 1.1
TTATACGGC | 1.07
CGGACCTTGA | 1.01
GCCTGGTCTA | 0.982
CCGCTCAATC | 4.86
GACTCTGGGG | 1.02
ATGAGGGA | 1.04
GTATCCTCCA | 1.07
CCGTTTAACG | 1.06
AAAATACTTC | 1.18
AGAATATTTA | 0.998
CACATGCTGA | 1
AACATGCATC | 1.02
AGGGTATTCC | 0.987
AAGTATTATA | 0.99
AGCAGCAGGG | 1.03
CAGGCTAATA | 0.99
ATGTGATCTT | 0.971
GTTCTTCGGG | 0.972
CATAGGAAAG | 1
GTCGTTAGTA | 0.975
GCGGGGCGGA | 1.03

Sequence | switch fluorescence ratio
GCAGTGGAGA | 1.04
CTTCAAGGAT | 1.03
TATTTGCGC | 1.04
ACTCGGTTCC | 1.07
TCCGAGTAGC | 1.06
ACTTTGGGCC | 1.01
TAACTATGGA | 0.96
TCGTTGAATC | 0.991
GCATAAGTAA | 1
TTATTGGT | 1.03
ACCAGGTTGC | 1.6
CGAACGAT | 1.06
TAGTCTCCTT | 1.01
CACAGTAGAA | 1.04
GGTAGAAACA | 0.996
GAGGCCGATA | 1.02
CCAGTGTTGA | 1.08
CAAGGGTGGG | 0.982
GAGAATCTTA | 0.996
AAATGTCGGA | 0.955
GCAAGAAGTC | 1.02
AGGAAACATC | 0.99
CGACCCGGAT | 0.973
ATGTTGTACG | 1.03
GGGGGCACAC | 0.963
ATCTCTTTGC | 1.06

Sequence | switch fluorescence ratio
TTCGGTGATT | 0.986
GGATTAAGTC | 1
GTTATAAGAT | 1.02
TCAATCCGTG | 0.977
GTGTGAGGAT | 1
ATCATGGTTC | 1.02
CGTTATTCAG | 0.976
GCAGCCGCGT | 1.07
GAATTCGGCC | 0.985
GCCAGCGTTC | 1.06
GTCCCGGACC | 1.03
TGCCAGCGAA | 1
TACGACAGTG | 1.05
ATACAAGGTC | 1.06
CGAAAATT | 1.02
TGCTCATTTA | 1
AATTTGGCGA | 1.02
AACTTACCG | 1.11
ATTGGCGACA | 0.955
TTCCCCGGGG | 1.63
CCGGTTCAAT | 2.9
GTGTATCGC | 1.03
GGCGGGCAAT | 1.08
TGCTTTCGGA | 0.978
TTGCAGTGGG | 1.04
GACTATAGAC | 1.1

Sequence | switch fluorescence ratio
AAGGTCGTGC | 0.994
TCAGCACGCG | 1.05
ATAACACATA | 1.03
TCAGCATCC | 1.97
TGGGCTTGTG | 0.919
TATAGAGTG | 0.988
AACTTAGCAA | 1.51
GCTCCCACAA | 3.41
ATAGGGGTTA | 1.02
GCAGTAGCGC | 1.04
GGGTGGATAA | 1.02
GGTAAACAGA | 1.05
TCGCTCCTCT | 1.05
TAACAGCGTT | 1.02
TAACCTTTCC | 3.3
GGTGCGTACA | 0.997
TCGCAATGAA | 5.64
GTCCGGCCGC | 1.1
CCCCTCGGCG | 1.23
AAATTACCCG | 1.03
GAGGCACGGT | 1.05
AGACCTGCCG | 1
GACGGGTTTA | 1.03
ATATGTGTCG | 1.05
ATTAGTCCAG | 1.06
ATTGACCGTA | 1

Sequence | switch fluorescence ratio
CCTTTTGGAA | 1.01
ACGACGGCTA | 1.98
ACCAGTTGGG | 0.97
CGACATTATT | 1.06
ATTATGTCCG | 0.967
ATGCTTCGGG | 1
GCTTGACATT | 0.988
GTTGCGGCAG | 0.981
TGAAGCGCGT | 1.02
ACTATGTTAT | 1.03
GACGGTGGCG | 0.919
CGTCGACCCA | 0.994
CACGCCCAG | 1.06
ACGCGACTTT | 1.14
TACGAACGCG | 1.2
GCCTTCACG | 1.14
ATTCCGTTTC | 1.09
TTTGATGGA | 1.02
AGAGCATCGT | 0.956
AAGAATTCGA | 1.02
AAAACTCTAG | 1.06
ACATGGGCAC | 1
TACCTCGGAC | 1.12
AGCGGGACCT | 1.15
TGACTGGCAC | 1.18
ACAATCGCCG | 1.03

Sequence | switch fluorescence ratio
ATCTTTGGA | 1.03
AAATGAGGA | 0.99
ATGGCCGCCA | 0.984
ATGTAATCGG | 0.989
ATTACAGAAG | 1.05
TGAAGTACTG | 1.02
TCTAGCCCGT | 0.973
CAACCGTACA | 1.51
ATAACCGCGC | 2.44
GTTAATTTGA | 0.97
GCTCGTCGGG | 1.01
CAAGTAGAAC | 1.08
ATGACGCCT | 0.951
TGGCGAAGCG | 1.01
TCAACTCAAA | 0.972
GGGTAATCG | 1.02
GTCAGGTGCA | 1.52
GGTAAACTTT | 0.928
GACAAAAGCA | 1.02
